Results: paper PMC4336329 (PLoS ONE, 2015)
Screen size: about 310,000 compounds; about 14,000 (4.5%) showed an effect of 50% or more. The effect is printed as a negative number. Some of the results follow.

Molecular target: human ether-à-go-go-related gene (hERG) potassium channel (human, UniProt Q12809)
Assay: primary screen, population patch clamp on CHO cells stably expressing hERG
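Note: peak tail current of the secondary pulse compared with the same well before compound.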

Sequence of human ether-à-go-go-related gene (hERG) potassium channel (Q12809 whole entry, looked up): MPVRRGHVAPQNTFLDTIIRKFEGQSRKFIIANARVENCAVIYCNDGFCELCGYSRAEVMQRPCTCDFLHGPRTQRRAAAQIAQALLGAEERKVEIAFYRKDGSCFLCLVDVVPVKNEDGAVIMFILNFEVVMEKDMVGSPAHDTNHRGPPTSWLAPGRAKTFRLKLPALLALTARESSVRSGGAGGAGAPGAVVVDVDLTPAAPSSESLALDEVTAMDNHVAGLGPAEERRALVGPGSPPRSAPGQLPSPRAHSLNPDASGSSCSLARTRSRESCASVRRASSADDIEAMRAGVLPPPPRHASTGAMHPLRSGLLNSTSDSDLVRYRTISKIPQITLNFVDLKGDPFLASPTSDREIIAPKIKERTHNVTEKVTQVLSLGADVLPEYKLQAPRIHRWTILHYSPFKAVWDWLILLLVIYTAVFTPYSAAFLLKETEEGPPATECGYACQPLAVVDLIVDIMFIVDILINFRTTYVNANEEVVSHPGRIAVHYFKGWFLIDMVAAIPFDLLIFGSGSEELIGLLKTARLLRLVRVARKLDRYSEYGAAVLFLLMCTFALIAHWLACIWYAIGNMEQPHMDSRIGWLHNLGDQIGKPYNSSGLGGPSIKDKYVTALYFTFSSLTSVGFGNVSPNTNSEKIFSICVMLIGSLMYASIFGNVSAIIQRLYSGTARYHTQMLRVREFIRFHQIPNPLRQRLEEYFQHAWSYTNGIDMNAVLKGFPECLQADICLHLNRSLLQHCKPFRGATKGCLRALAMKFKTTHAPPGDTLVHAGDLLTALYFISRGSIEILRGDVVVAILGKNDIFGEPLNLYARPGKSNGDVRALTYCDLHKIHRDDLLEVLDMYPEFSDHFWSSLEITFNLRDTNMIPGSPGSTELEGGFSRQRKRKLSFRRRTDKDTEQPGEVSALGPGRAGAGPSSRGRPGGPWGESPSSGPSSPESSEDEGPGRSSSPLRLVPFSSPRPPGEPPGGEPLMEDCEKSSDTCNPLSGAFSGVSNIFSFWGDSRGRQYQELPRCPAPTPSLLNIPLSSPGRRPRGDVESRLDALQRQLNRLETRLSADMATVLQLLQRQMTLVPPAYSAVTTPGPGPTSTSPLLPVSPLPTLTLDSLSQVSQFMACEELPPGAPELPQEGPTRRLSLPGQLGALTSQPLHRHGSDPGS

| SMILES | hERG current change (%, negative = inhibition) at 10uM |
| --- | --- |
| C[C@H](NC(=O)OC(C)(C)C)C(=O)NCC1CCC(C(=O)N[C@@H](Cc2ccccc2)C(=O)O)CC1 (stereo partly shown) | 13.9% |
| CC1CCc2c(sc(NC(=O)Cn3nc(C(=O)O)c4ccccc4c3=O)c2C#N)C1 (stereo not shown) | 4.25% |
| NC(=O)CSc1nnc(COc2ccc3ccccc3c2)o1 | 18.6% |
| CCC1(CC)NC(=O)N(CC(=O)N2CCN(S(=O)(=O)c3cccc(F)c3)CC2)C1=O | 7.12% |
| COc1ccc(N(Cc2ccccc2)S(=O)(=O)c2ccc(C)cc2)cc1 | 6.2% |
| Cc1cc(C)n2nc(C(=O)N/N=C/c3cccc(Cl)c3)nc2n1 | -23.4% |
| O=C(COC(=O)c1ccc(Cl)nc1)NCc1cccs1 | 20.2% |
| O=C(c1ccccc1Cl)c1c(O)c2ccccc2oc1=O | -3.19% |
| COCCCN1C(=O)C(=O)/C(=C(/O)c2ccc(S(=O)(=O)N3CCCCC3)cc2)C1c1ccc(F)cc1 (stereo not shown) | 15.2% |
| COc1ccc(NS(=O)(=O)c2ccc(NS(=O)(=O)c3cccc(C(=O)O)c3)cc2)cc1 | 17.4% |
| CC1=CC(C)(C)N(C(=O)CN2C(=O)CCC2=O)c2ccc(C)cc21 | -15.4% |
| Cc1cc(C)c2nc(N(CCCN(C)C)C(=O)c3ccc(S(=O)(=O)N4CC(C)OC(C)C4)cc3)sc2c1.Cl (stereo not shown) | -33.7% |
| Cn1c(=O)c2c(SCc3cccnc3)nc(C3CC3)nc2n(C)c1=O | -9.63% |
| CC(=O)Nc1ccc(NC(=O)C(C)Oc2ccc(C)nc2[N+](=O)[O-])cc1 (stereo not shown) | 3.14% |
| O=C(Nc1ccccc1N1CCOCC1)c1ccc(OCc2cscn2)cc1 | -17.5% |
| COCCN(Cc1nc2ccccc2c(=O)[nH]1)C(=O)COc1cccc(C(C)=O)c1 | -23% |
| CCN(CC(=O)NCc1ccc(F)cc1)C(=O)C1CC1C (stereo not shown) | -1.06% |
| COCCSc1nnc(NC(=O)c2cc(C(=O)OC)cc([N+](=O)[O-])c2)s1 | 11.4% |
| CC(OC(=O)c1cccs1)C(=O)NCc1ccco1 (stereo not shown) | -5.28% |
| O=C(NCCC1=CCCCC1)c1ccc(-n2cncn2)cc1 | -29.2% |
| C=CCN(CC=C)S(=O)(=O)c1ccc(C(=O)Nc2nnc(COC)o2)cc1 | 14.2% |
| COc1ccc(-c2cc(C(=O)N3CCCc4ccccc43)no2)cc1OC | -16% |

| SMILES | hERG current change (%, negative = inhibition) at 10uM |
| --- | --- |
| COc1cc(C(=O)Nc2ccc3c(c2)C(=O)N(CCC(=O)O)C3=O)cc(OC)c1OC | -1.57% |
| CC(C)(C)OC(=O)N[C@@H](C(=O)OC(C)(C)C)c1ccc(C(F)(F)F)cc1 | 1.97% |
| CCNC(=O)C(=O)Nc1cc2c3c(c1)CCC(=O)N3CCC2 | 19.8% |
| CC(C)c1ccc(NC(=O)CNC(=O)Cn2ccc3ccccc3c2=O)cc1 | 16.7% |
| Oc1ccc(C=Nc2ccc3ncccc3c2)c(O)c1 | 3.7% |
| CCOC(=O)CNC(=O)N1CCCC(C(=O)c2ccccc2SC)C1 (stereo not shown) | 7.47% |
| Cc1cc(-c2nn(-c3ccccc3F)cc2CN2CCCC(O)C2)c(C)s1 (stereo not shown) | -9.16% |
| Cn1c(C(O)c2ccc3c(c2)OCO3)nc2ccccc21 (stereo not shown) | 5.63% |
| CCc1c(C)nc2ncnn2c1N1CCC(C(=O)NCc2cccc(OC)c2)CC1 | -38.6% |
| O=C1c2ccccc2C(=O)N1CCc1nc(-c2ccncc2)no1 | -13.9% |
| Cc1cc(N2CCOCC2)n2ncc(-c3ccccc3)c2n1 | -18.5% |
| C=C(C)c1cccc(C(C)(C)NC(=O)Nc2ccc(Cl)cn2)c1 | -3.58% |
| CC(=O)CCn1c(=O)n(CCC(C)=O)c(=O)n(CCC(C)=O)c1=O | 10.7% |
| COc1ccc(CN2C(=O)c3ccccc3C2C(=O)NC2CCCC2)c(OC)c1 (stereo not shown) | -6.02% |
| COC(=O)c1nnn(-c2ccc(F)c(Cl)c2)c1C(=O)OC | 13.3% |
| O=C(COC(=O)/C=C/c1ccccc1Cl)NC1CCCC1 | 14.6% |
| CCOC(=O)C(C(=O)Nc1ccc(C)cc1)C1CCCCC1 (stereo not shown) | 0.407% |
| Cc1cc(-c2ccco2)n(CC(=O)NCCN(C)C)n1 | 19.2% |
| Cc1ccc(Cl)cc1N1CCN(S(=O)(=O)c2c(C)[nH]c(C)c2C(=O)N2CCCCC2)CC1 | 12.9% |
| CC1CCCCC1NC(=O)c1ccc(S(=O)(=O)N2CCN(C)CC2)cc1 (stereo not shown) | 6.01% |
| CC(C)n1cc(CN2CCCC(CO)(Cc3cccc(Cl)c3)C2)cn1 (stereo not shown) | -24% |
| Fc1ccc2cnc(-c3ccccc3)c(-c3cccc(C(F)(F)F)c3)c2c1 | 22.3% |

| SMILES | hERG current change (%, negative = inhibition) at 10uM |
| --- | --- |
| Cc1cccc(C)c1NC(=O)CSc1nnc(-c2cnccn2)n1C | 15.2% |
| O=[N+]([O-])c1cccc(Cl)c1NCCNS(=O)(=O)c1ccccc1 | -15.2% |
| C/C(=N/NS(=O)(=O)c1cccc([N+](=O)[O-])c1)c1ccncc1 | 16.3% |
| CCS(=O)(=O)c1nc(S(=O)(=O)c2ccc(C)cc2)c(N2CC(C)OC(C)C2)s1 (stereo not shown) | -37.6% |
| CCN(CC(O)c1cccc(O)c1)C(=O)C12CC3CC(CC(C3)C1)C2.Cl (stereo not shown) | -23.6% |
| Cc1cc2oc(=O)cc(CN3CCOCC3)c2cc1Cl | 12.9% |
| COc1ccc(S(=O)(=O)N(C)c2ccc(C(=O)N3CCCCC3)cc2)cc1OC | -8.57% |
| CCC(=O)Nc1ccc2nc(SCC(=O)N3CCOCC3)sc2c1 | -17.2% |
| COc1cc(C(c2c(C)[nH][nH]c2=O)c2c(C)[nH][nH]c2=O)ccc1OS(=O)(=O)c1ccccc1 | 0.583% |
| Cc1onc(-c2ccccc2)c1C(=O)Nc1nnc(CC(C)C)s1 | -15.4% |
| Cc1nc(NCCc2ccccc2)c2nnn(Cc3ccccc3Cl)c2n1 | 25.9% |
| CCOC(=O)N1CCN(c2ncnc3scc(-c4ccccc4)c23)CC1 | -32.6% |
| Fc1cc(Br)ccc1NC(=S)Nc1ccccc1 | 14.1% |
| COC(=O)C(C(=O)OC)N1C(=O)CCC1=O | -7.02% |
| O=C(O)/C=C/C(=O)N(CC1CCCO1)C1CC(=O)N(c2c(Cl)cccc2Cl)C1=O (stereo not shown) | 19.2% |
| CCC(Oc1ccccc1)C(=O)Nc1cc(Cl)ccc1-n1cncn1 (stereo not shown) | -14.1% |
| COC(=O)c1c(C)nc(C)c(C(=O)OC)c1-c1cccs1 | 1.61% |
| O=C(O)c1ccc(Oc2cccc([N+](=O)[O-])c2)cc1C(=O)O | 13.2% |
| CC(NC(=O)c1ccccc1Cl)C1CC2CCC1C2 (stereo not shown) | 20.8% |
| CC(=O)O[C@H]1C(=O)[C@@]2(C)[C@H]([C@H](OC(=O)c3ccccc3)[C@]3(O)C[C@H](OC(=O)[C@H](O)C(NC(=O)c4ccccc4)c4ccccc4)C(C)=C1C3(C)C)[C@]1(OC(C)=O)CO[C@@H]1C[C@@H]2O (stereo partly shown) | 17.1% |
| COc1ccc(C)cc1-n1c(SCC(=O)Nc2cccc(C(=O)O)c2)nc2ccccc2c1=O | 12% |
| CNC(=O)c1ccc(NC(=O)c2cccc(C(F)(F)F)c2)cc1 | 10.1% |

| SMILES | hERG current change (%, negative = inhibition) at 10uM |
| --- | --- |
| COc1ccc2cc(C(=O)NCc3ccccc3CN3CCCC3)ccc2c1 | -68.2% |
| COc1cccc(OC)c1C(=O)NNS(=O)(=O)c1ccc2ccccc2c1 | -5.2% |
| COc1ccccc1-c1ccc(SCC(=O)NC2CCCC2)nn1 | -24.5% |
| CCSc1nc(N)c(C#N)c(-c2ccco2)c1C#N | 1.16% |
| CCSc1nnc(Cn2c(=O)sc3ccccc32)n1-c1ccccc1C | -2.71% |
| COc1ccc(CCNC(=O)COc2ccc3c(c2)OCO3)cc1 | -6.6% |
| Cc1cc2cc(C)c(NCCNC(=O)c3cccs3)nc2cc1C | -3.57% |
| CC(C)CNC(=O)c1cc(S(=O)(=O)N2CCOCC2)ccc1N1CCCC1 | 6.7% |
| CN1CCN(S(=O)(=O)c2cc([N+](=O)[O-])ccc2N/N=C/c2ccc(Cl)cc2)CC1 | -1.71% |
| CCCn1c(N)c(C(=O)CN(C)CC(=O)Nc2ccc(F)cc2)c(=O)[nH]c1=O | -70.6% |
| Cc1noc2ncnc(Sc3ccccc3Cl)c12 | 3.95% |
| Cc1cc(C)n(CC(O)COc2c(C)cccc2C)n1 (stereo not shown) | -1.28% |
| CC1(NC(=O)Nc2cc([N+](=O)[O-])ccc2O)CCS(=O)(=O)C1 (stereo not shown) | 26.3% |
| COCCCNC(=O)CCSc1ccc(C)cc1 | -0.854% |
| COc1ccc(-c2cc(C(=O)Oc3ccc([N+](=O)[O-])cc3)c3ccccc3n2)cc1 | 7.78% |
| CC1C(=O)N2CCCc3cc(NC(=O)C(=O)NCCc4c[nH]c5ccccc45)cc1c32 (stereo not shown) | -17.7% |
| COc1cc(C(=O)Nc2scc(-c3ccccc3)c2C(=O)O)cc(OC)c1OC | -11.5% |
| Cc1ccc(C)c(Cn2nnc3c(=O)[nH]c(C4CCCN(C(=O)C5CCC5)C4)nc32)c1 (stereo not shown) | -32.4% |
| Cc1cc(-c2ccccc2)n2ncnc2n1 | 12.5% |
